Source: PubChem BioAssay AID1508642 (National Center for Advancing Translational Sciences (NCATS), 2021)
The whole screen tested about 43,000 compounds, of which about 200 (0.47%) were called active. About 12% were inconclusive and are not listed. The call rests on the fitted dose curve; in most records, active means well fitted cell-killing curve with a large enough effect; inconclusive means small, poorly fitted or top-dose-only effect, or effect the other way; inactive means flat fitted curve, though single readings scatter. Some of the results follow.

Experiment: Cell viability qHTS assay in S16 Pmp22-F2sN cells; further: nearly all actives have a fitted effect of over 65% in size
Details: S16 Pmp22-F2sN Schwann cells viability, CellTiter-Glo, 24 h; series mostly up to 57.5 µM; activity change, negative = cytotoxicity: at the top concentration
Procedure, shortened: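 S16 Pmp22-F2sN Schwann cells (500-1,000/well) in phenol-red-free DMEM with 10% FBS received 23 nL compound by pin tool for 24 h at 37 °C. Viability was then read as CellTiter-Glo luminescence after 15 min at room temperature.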
On the % scale 0 is the no-effect control and ±100 the full control effect; potency means the concentration at half of the fitted maximal effect.

Row | Structure (SMILES) | activity change, negative = cytotoxicity | Potency
1 | COc1ccccc1N1CCN(C(=O)c2ccc(CS(=O)c3ccccc3C)o2)CC1 (stereo unspecified) | inactive: -1.96% | –
2 | COc1ccc(CCN2C(=O)c3oc4cc(C)cc(C)c4c(=O)c3C2c2ccc(F)cc2)cc1OC (stereo unspecified) | inactive: -0.308% | –
3 | O=C(NC1CC1)c1ccc(Cn2c(SCc3cccc(F)c3)nc3cccnc32)cc1 | inactive: -11.2% | –
4 | O=C(NCC(c1cccnc1)N1CCc2ccccc2C1)c1ccc(F)c(F)c1 (stereo unspecified) | inactive: -13% | –
5 | CCC(CC)C(=O)Nc1ccc(OCc2cc(=O)n3c4c(sc3n2)CCCC4)cc1 | inactive: -3.03% | –
6 | CCS(=O)(=O)N1CCc2cc(C(=O)NCc3ccc(OC)cc3)ccc21 | inactive: 20.6% | –
7 | Cn1cc(S(=O)(=O)c2cccc(Cl)c2)c(=O)c2cc(F)c(N3CCCCCC3)cc21 | inactive: 2.78% | –
8 | CC(=O)N1CCc2cc(CNS(=O)(=O)c3ccc(F)cc3)ccc21 | inactive: 4.04% | –
9 | CCc1ccc(-c2cn3c(n2)sc2cc(C(=O)NC4CCCCCC4)ccc23)cc1 | inactive: 11.6% | –
10 | O=C(NCc1cccc(Cl)c1)c1cc2c(s1)-c1ccccc1OC2 | inactive: -5.54% | –
11 | CCc1c(C)sc2c1CCN(Cc1cccc(F)c1)C2c1ccccc1 (stereo unspecified) | – | active: 10 µM
12 | COc1ccc(Cl)cc1Nc1sc(C(=O)c2ccccc2)c(N)c1C(=O)Nc1ccccc1 | inactive: -0.776% | –
13 | Cc1ccc(NC2=C(c3ccc(C(F)(F)F)cc3)C(=O)c3ccccc32)cc1C | inactive: -1.07% | –
14 | CC(=O)Nc1ccc(C(=O)CSc2nnc(-c3ccccc3)n2-c2ccccc2)cc1 | inactive: 18% | –
15 | Cc1ccc(-c2cc(C(=O)NCc3cnn(C)c3C)c3cc(Br)ccc3n2)cc1 | inactive: 13.8% | –
16 | Cc1ccc(S(=O)(=O)c2nc(-c3ccccc3F)oc2N2CCCCC2)cc1 | inactive: -2.01% | –
17 | COCCc1nn2c(=O)cc(COC(=O)c3ccc4c(c3)OCO4)nc2s1 | inactive: -5.34% | –
18 | Cc1cccc(-c2nc(S(=O)(=O)c3ccc(F)cc3)c(N3CCN(c4ccccc4)CC3)o2)c1 | inactive: 10.1% | –
19 | Cc1ccc(CCNC(=O)c2ccc3c(c2)N(Cc2cccc(C)c2)C(=O)c2ccccc2S3(=O)=O)cc1 | inactive: 9.03% | –
20 | CC(C)c1ccc(NC(=O)c2cc3c(s2)-c2ccccc2SC3)cc1 | inactive: -14.1% | –
21 | CCOC(=O)c1c(C)[nH]c(CCC(=O)NCCCN2CCN(c3ccc(F)cc3)CC2)c1C | inactive: -6.29% | –

Row | Structure (SMILES) | activity change, negative = cytotoxicity | Potency
22 | CCOC(=O)c1ccccc1NC(=O)Cn1cc(C(=O)c2cccc(OC)c2)c(=O)c2ccc(C)nc21 | inactive: 7.23% | –
23 | CCc1ccc(N=C2NC(=O)CC(C(=O)Nc3ccc(OC)cc3)S2)cc1 (stereo unspecified) | inactive: 15.9% | –
24 | COc1cc2c(cc1OC)C(COc1ccccc1OC)N(C(=O)CC(C)C)CC2 (stereo unspecified) | inactive: -4.34% | –
25 | Cc1cc(=O)[nH]c2nnc(SCC(=O)NC(C)(C)C)n12 | inactive: 1.41% | –
26 | O=C(CN1C(=O)COc2ccc(S(=O)(=O)N3CCCCCC3)cc21)NCc1ccc(Cl)cc1 | inactive: -3.62% | –
27 | COc1ccc(OC)c(NC(=O)Cc2coc3ccc(C(C)C)cc23)c1 | inactive: 4.2% | –
28 | CCOC(=O)c1[nH]c(C)c(CCC(=O)NCc2ccccc2)c1C | inactive: -12.2% | –
29 | CCOC(=O)c1c(-c2ccccc2)oc2ccc(N(C(C)=O)S(=O)(=O)c3cc(C)ccc3C)cc12 | inactive: -7.66% | –
30 | CC(=O)N1CCOc2cc(S(=O)(=O)Nc3cccc(C(F)(F)F)c3)c(Cl)cc21 | inactive: -18.1% | –
31 | CCOC(=O)c1ccccc1NC(=O)C(=O)Nc1ccc2nc3n(c(=O)c2c1)CCCCC3 | inactive: 7.98% | –
32 | CCc1cccc(-n2c(C)nc3c(cnn3-c3ccc(Cl)cc3)c2=O)c1 | inactive: 1.62% | –
33 | COc1ccc(NC(=O)C2CCN(S(=O)(=O)c3ccc4[nH]c(=O)ccc4c3)CC2)c(OC)c1 | inactive: -1.15% | –
34 | Cc1cn2c(=O)cc(COc3cccc(NC(=O)c4ccccc4C)c3)nc2s1 | inactive: 0.562% | –
35 | CCOc1ccc(CNC(=O)C2CCN(c3nnc(-n4cccc4CNc4ccc(C)cc4)s3)CC2)cc1OC | inactive: 0.162% | –
36 | CCc1c(C)nc(SCC(=O)N2CCN(c3ccccc3OC)CC2)[nH]c1=O | inactive: 21.4% | –
37 | CCCCSCCCNC(=O)CN1C(=O)c2cccnc2Oc2ccc(Cl)cc21 | inactive: 3.67% | –
38 | CCOc1ccc(-c2nonc2NC(=O)c2oc3cc(C)ccc3c2C)cc1 | inactive: 3.23% | –
39 | COc1ccc(OC)c(NC(=O)c2cc3c(=O)oc4ccccc4c3s2)c1 | inactive: -0.751% | –
40 | Cc1ccc(C)c(NC(=O)c2ccc3c(O)c(S(=O)(=O)c4ccc(Cl)cc4)c(=O)[nH]c3c2)c1 | inactive: 4.41% | –
41 | Cc1cc2c(cc1S(=O)(=O)NCc1ccccc1Cl)OCCN2C | inactive: 3.71% | –
42 | Fc1ccc(-c2noc3ncnc(N4CCN(c5ccccc5)CC4)c23)cc1 | inactive: -7% | –

Row | Structure (SMILES) | activity change, negative = cytotoxicity | Potency
43 | COc1ccc(S(=O)(=O)N2CCN(c3ccccc3F)CC2)cc1-c1noc(C)n1 | inactive: 10% | –
44 | O=C(NCc1ccc(F)cc1)c1ccc2c(Cl)c3c(nc2c1)CCCC3 | inactive: 1.21% | –
45 | Cc1ccc(NC(=O)c2cnn3c(C(F)F)cc(-c4ccccc4)nc23)c(C)c1 | inactive: 7.24% | –
46 | COc1ccc(OC)c(NC(=O)C2CCCN(S(=O)(=O)c3c(C)nn(C)c3C)C2)c1 (stereo unspecified) | inactive: 7.35% | –
47 | Cc1ccc(NC(=O)Nc2nnc(N(CC(C)C)CC(C)C)s2)cc1Cl | inactive: 1.8% | –
48 | CCOC(=O)c1ccc(NC(=O)CCCc2nc(-c3ccccc3Cl)no2)cc1 | inactive: 2.98% | –
49 | CCOc1ccc(-c2cc(NC(=O)Nc3cccc(C(C)=O)c3)c(C(=O)OC)s2)cc1 | inactive: -0.288% | –
50 | COc1ccc(NC(=O)C2=C(C)Nc3ncnn3C2c2ccc(O)cc2)cc1 (stereo unspecified) | inactive: 3.81% | –
51 | CCc1ccc(CNC(=O)Cc2ccc(NC(=O)N3CCSc4ncccc43)cc2)cc1 | inactive: 2.14% | –
52 | COc1cccc(N2CCN(C(=O)C(CCSC)NS(=O)(=O)c3ccc4c(c3)oc(=O)n4C)CC2)c1 (stereo unspecified) | inactive: -4.13% | –
53 | CCOC(=O)CSc1nc2ccc(NC(=O)c3ccc(C)cc3)cc2s1 | inactive: 3.82% | –
54 | O=C(O)c1ccc2c(c1)ncn2-c1ccc(F)c(F)c1 | inactive: -6.1% | –
55 | Cc1nn(CCCC(=O)NCc2ccc(F)cc2)c(=O)c2c1sc1ccccc12 | inactive: 15.4% | –
56 | CCOc1ccc(N2CC(c3nc4ccccc4n3Cc3cccc(Cl)c3)CC2=O)cc1 (stereo unspecified) | inactive: -24% | –
57 | CCOc1ccc2nc(NC(=O)c3cc(=O)c4ccc(C)cc4o3)sc2c1 | inactive: 3.31% | –
58 | CCN1CCSc2ccc(C(=O)NC(C)c3ccccc3)cc21 (stereo unspecified) | inactive: -23% | –
59 | Cc1cc(C)cc(C(=O)Nc2ccc(-c3nc4ncccc4o3)cc2)c1 | inactive: 0.848% | –
60 | Cc1c2cnn(CC(=O)N3CCN(c4ccc(F)cc4)CC3)c(=O)c2c(C)n1Cc1ccc(F)cc1 | inactive: -21.3% | –
61 | Cc1ccc(CNC(=O)Cn2nc(C)n3cccc3c2=O)cc1 | inactive: 1.6% | –
